Experimental data: paper PMC9814191
Where two headings read alike, the source gives them in different places. Results are given in words; binding and its absence hold for the method and conditions named. In cells and extracts the contact can be indirect. Some binding calls cover weakened binding; strength is not graded here. Tags and fused reporters may be left off the sequences shown.

The chains behind the UniProt entries cited, without tags or fusion partners. Where a name states a change or a piece, a line headed by the entry shows the natural chain unless it says otherwise. Residues count along the entry.
UniProt P09693, residues 23-182: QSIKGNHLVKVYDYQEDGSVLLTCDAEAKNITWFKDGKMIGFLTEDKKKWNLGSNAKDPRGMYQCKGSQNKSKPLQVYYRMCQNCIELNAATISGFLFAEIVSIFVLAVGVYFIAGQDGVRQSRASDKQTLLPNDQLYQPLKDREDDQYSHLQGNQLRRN
UniProt P04234, residues 22-171: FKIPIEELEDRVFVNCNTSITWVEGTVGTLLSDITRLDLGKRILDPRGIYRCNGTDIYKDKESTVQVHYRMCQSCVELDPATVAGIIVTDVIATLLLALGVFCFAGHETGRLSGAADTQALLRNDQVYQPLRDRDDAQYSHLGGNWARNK
UniProt P07766, residues 23-207: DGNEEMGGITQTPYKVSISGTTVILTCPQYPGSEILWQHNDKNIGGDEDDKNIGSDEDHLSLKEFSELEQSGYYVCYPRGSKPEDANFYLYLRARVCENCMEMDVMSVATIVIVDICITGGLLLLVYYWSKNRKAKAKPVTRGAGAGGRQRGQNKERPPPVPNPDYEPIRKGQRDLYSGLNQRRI
UniProt P10747, residues 19-220: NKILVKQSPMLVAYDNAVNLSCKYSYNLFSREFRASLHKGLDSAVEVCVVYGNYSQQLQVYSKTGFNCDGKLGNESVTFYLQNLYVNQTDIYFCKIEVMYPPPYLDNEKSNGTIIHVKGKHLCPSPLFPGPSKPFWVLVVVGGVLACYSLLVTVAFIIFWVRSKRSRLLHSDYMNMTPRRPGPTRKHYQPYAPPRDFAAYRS

T1: Fc-tagged purified human recombinant TLT-1 (TREM-like transcript 1) (human) (UniProt Q86YW5)
T1 sequence: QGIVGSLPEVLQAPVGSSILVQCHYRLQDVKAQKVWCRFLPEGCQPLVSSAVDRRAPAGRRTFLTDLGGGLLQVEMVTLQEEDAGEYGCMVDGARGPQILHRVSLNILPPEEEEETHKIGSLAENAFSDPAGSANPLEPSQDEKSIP


How the values were obtained:
[1] = molecular target: T1, Fc-tagged purified human recombinant TLT-1 (TREM-like transcript 1) (human); experiment: co-IP; intact Jurkat cells incubated 15 min with Fc-tagged purified TLT-1 or IgG as control; lysate in mild IP lysis buffer (not boiled); 1 mg total protein with Protein A/G Dynabeads; immunoblot for individual targets with non-IP lysate as input; only the target purified
[2] = molecular target: T1, Fc-tagged purified human recombinant TLT-1 (TREM-like transcript 1) (human); experiment: as above; remark: listed apart in the source

Molecule | binding [1] | binding [2]
CD3γ (from UniProt P09693 23-182) (receptor) | no binding | 
CD3δ (from UniProt P04234 22-171) (receptor) | no binding | 
CD3ε (ε subunit of the CD3 receptor) (from UniProt P07766 23-207) | binds | 
CD28 (from UniProt P10747 19-220) (receptor) | no binding | 
TRAILR3 (receptor, UniProt O14798 26-236) ATTARQEEVPQQTVAPQQQRHSFKGEECPAGSHRSEHTGACNPCTEGVDYTNASNNEPSCFPCTVCKSDQKHKSSCTMTRDTVCQCKEGTFRNENSPEMCRKCSRCPSGEVQVSNCTSWDDIQCVEEFGANATVETPAAEETMNTSPGTPAPAAEETMNTSPGTPAPAAEETMTTSPGTPAPAAEETMTTSPGTPAPAAEETMITSPGTPA |  | no binding
